Laboratory results: PubChem BioAssay AID720542 (National Center for Advancing Translational Sciences (NCATS), 2013)
In all, about 360,000 compounds went through this assay and about 740 (0.21%) were called active. This list was built around the results that the source calls inconclusive (neither active nor inactive); the mix of calls is not that of the screen. The call rests on the fitted dose curve; in most records, active means well fitted inhibition curve with a large enough effect; inconclusive means small, poorly fitted or top-dose-only effect; inactive means no such curve, though single readings can be large or run the other way. Potencies of inconclusive entries are left out as doubtful fits.

Tested on: Plasmodium falciparum AMA1 (3D7) - RON2 peptide interaction
Assay: qHTS for Inhibitors of AMA1-RON; Towards Development of Antimalarial Drug Lead: Primary Screen; further: nearly all actives have a fitted effect of over 45% in size;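 on activity change, negative = inhibition: 0% = vehicle wells and -100% = peptide control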
Conditions: AlphaScreen AMA1-biotinylated RON2 peptide binding; activity change, negative = inhibition: at 58.2 µM (top of the series) unless noted
Procedure, shortened: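 AMA1 (3D7) with his tag at 25 nM final met compounds first, then biotinylated RON2 peptide at 25 nM; detection used donor plus acceptor beads, 10 µg/mL apiece, read by AlphaScreen after 30 min at room temperature.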
Potency means the concentration at half of the fitted maximal effect; tags describe the fitted curve by direction and shape.

SMILES | activity change, negative = inhibition | Potency
CCN(CC)C(=S)SCC(=O)Nc1nc(=O)c2ccccc2s1 | inactive: -6.44% | 
Cc1ccc(-c2cc(C(F)F)n3ncc(C(=O)N4CCCCC4c4cccnc4)c3n2)cc1 (centres undefined) | inactive: 11.7% | 
COc1ccc(N=C2S/C(=C\c3cc(C)n(C)c3C)C(=O)N2C)cc1 | inactive: -18% | 
O=C(NCc1ccco1)c1c2c(nc3ccccc13)CCC2 |  | inconclusive [inhibitor, single point]
CN(C)CCN1C(=O)C(=O)/C(=C(/O)c2ccc(F)cc2)C1c1ccccc1F (centres undefined) |  | inconclusive [inhibitor, partial curve]
O=C1NC(=O)C2(CCCc3ccc(N(CCCl)CCCl)cc32)N1 (centres undefined) |  | inconclusive [inhibitor, single point]
COC(=O)c1ccccc1NC(=O)CSc1nnnn1C1CCCCC1 |  | inconclusive [inhibitor, full curve]
CCN1/C(=C/c2ccc3cc(C)cc(C)c3[n+]2CC)Sc2cc(C)ccc21 |  | inconclusive [inhibitor, single point]
Cc1cc(C)cc(OCC(=O)N(Cc2ccc(N(C)C)cc2)C2CCS(=O)(=O)C2)c1 (centres undefined) |  | inconclusive [inhibitor, single point]
CCCCCc1c(-c2ccc(OC)c(OC)c2)ncn1CCc1ccccc1OC |  | inconclusive [inhibitor, single point]
COc1ccc(N(C(=O)c2snc(C(N)=O)c2N)C(C(=O)NC2CCCC2)c2ccc(OC)c(OC)c2)cc1 (centres undefined) | inactive: -9.6% | 
CC1=C(c2ccc(C)cc2)[N+](=O)C(C)(C)N1[O-] |  | inconclusive [inhibitor, single point]
CCCCSc1nnc(-c2ccc(C)cc2)c2ccccc12 |  | inconclusive [inhibitor, full curve, poor fit]
O=C1C=C(O)c2c(O)cc(O)c(O)c2C1=O |  | active: 1 µM
O=C(Cc1cccc2ccccc12)N1CC[C@@]2(O)CCCC[C@H]2C1 |  | inconclusive [inhibitor, single point]
N#Cc1ccc(C(=O)Nc2nnc(-c3ccco3)o2)cc1 | inactive: 38.1% | 
COc1cccc(-c2nc3ccccc3c(=O)o2)c1 | inactive: 4.59% | 
Fc1ccc(N2CCN(Cc3ccc4c(c3)OCO4)CC2)cc1 |  | inconclusive [inhibitor, partial curve]
COc1ccc(-c2ccc(C(=O)Nc3cccc(N(C)C)c3)c3occc23)c(C)c1 |  | inconclusive [inhibitor, single point]
CC(C)Oc1ccc(C(=O)N2CCN(C(=O)c3ccco3)CC2)cc1 | inactive: -18.3% | 
O=S(=O)(N/N=C\c1cccnc1)c1ccccc1 |  | inconclusive [inhibitor, partial curve]
COc1ccc(N(CC(=O)Nc2ccc(C(C)C)cc2)S(=O)(=O)c2c(C)noc2C)cc1 | inactive: 9.82% | 
CNC(=S)N1N=C(c2ccc(Br)cc2)CC1c1ccc(N(C)C)cc1 (centres undefined) |  | inconclusive [inhibitor, partial curve]

SMILES | activity change, negative = inhibition | Potency
COc1ccc(/C=N\NC(=O)c2cc3c(ccc4ccccc43)o2)cc1O |  | inconclusive [inhibitor, single point]
Cc1ccc(-n2ncc(C#N)c2/N=C/N2CCCCCC2)cc1 | inactive: -0.0097% | 
COC(CNC(=O)CCc1c(C)nc2c(-c3ccc(F)cc3)c(C)nn2c1C)OC |  | inconclusive [inhibitor, full curve]
Cc1ccc(CNCC(O)(c2ccccc2)c2ccc(Cl)cc2)cc1 (centres undefined) |  | inconclusive [inhibitor, full curve, poor fit]
COc1ccc(Cn2nnnc2C(c2ccc(N(C)C)cc2)N2CCC(C(N)=O)CC2)cc1 (centres undefined) |  | inconclusive [inhibitor, partial curve]
CN1CCN(C(=S)c2ccc(-c3cc(Cl)ccc3Cl)o2)CC1 |  | inconclusive [inhibitor, single point]
CCC(=C(c1ccc(OC)cc1)c1ccc(OC)cc1)c1cn(CC(O)CN2CCN(C)CC2)c2ccccc12 (centres undefined) |  | inconclusive [inhibitor, single point]
CCC(c1nnnn1Cc1ccc2c(c1)OCO2)N1CCN(c2ccc(F)cc2)CC1 (centres undefined) |  | inconclusive [inhibitor, partial curve]
CCc1ccc(NSc2ccccc2[N+](=O)[O-])cc1 |  | inconclusive [inhibitor, partial curve]
O=C(COC(=O)c1ccccc1C(=O)OCC(=O)NCCc1c[nH]c2ccccc12)NCCc1c[nH]c2ccccc12 |  | inconclusive [inhibitor, single point]
O=C(CSCc1ccccc1Cl)N1CCN(c2ccccn2)CC1 | inactive: 3.36% | 
COc1cc(NC2=Nc3cccc4cccc2c34)cc(OC)c1OC |  | inconclusive [inhibitor, single point]
COc1ccc(CN(CCc2c[nH]c3ccccc23)Cc2ccc(OC)cc2)cc1 |  | inconclusive [inhibitor, partial curve]
Cc1nc2sc(-c3ccccc3)cc2c(=O)n1/N=C/N(C)C | inactive: 5.53% | 
N#Cc1nc(COc2ccc(F)cc2)oc1N1CCN(Cc2ccccc2)CC1 |  | inconclusive [inhibitor, single point]
Cc1ccc(/C=N/Nc2nnc(Cl)c3ccccc23)cc1 |  | inconclusive [inhibitor, full curve, poor fit]
O=C(Nc1ccccc1)C1(c2ccccc2)CC1(Cl)Cl (centres undefined) | inactive: -1.52% | 
CC(NCCc1ccc(S(N)(=O)=O)cc1)C(=O)NCCc1ccc(F)cc1 (centres undefined) |  | inconclusive [inhibitor, partial curve]
Cc1nc2c3ccccc3nc(NNC(=O)CCC(=O)NC(C)C)n2n1 | inactive: 23.3% | 
Cc1ccc([N+](=O)[O-])cc1NC(=O)CSc1n[nH]c(-c2cccnc2)n1 | inactive: -7.78% | 
CC1=CC2=NC(=O)/C(=C\c3cccn3CCOc3ccc(C)c(C)c3)C(=N)N2O1 |  | inconclusive [inhibitor, partial curve]
CN(C)CCCC1(c2ccc(F)cc2)OCc2cc(C#N)ccc21 (centres undefined) | inactive: -1.58% | 
CN1CCN(C2=C(Cl)C(=O)C(c3cnc(N4CCCCC4)s3)=C(Cl)C2=O)CC1 |  | inconclusive [inhibitor, single point]

SMILES | activity change, negative = inhibition | Potency
O=c1nc(Oc2ccccc2)nc2ncccn12 | inactive: 1.09% | 
CCOC(=O)C1CCN(Cc2ccc3ccccc3c2)CC1 |  | inconclusive [inhibitor, single point]
COc1cc(OC)cc(-c2sc3ccc(OC)cc3c2-c2ccc(OCCN3CCOCC3)cc2)c1 |  | inconclusive [inhibitor, single point]
Oc1c(Br)cc(Br)cc1CN1CCN(Cc2ccccc2)CC1 |  | inconclusive [inhibitor, partial curve]
Cc1ccc(S(=O)(=O)c2nnn3c2nc(N2CCOCC2)c2ccccc23)c(C)c1 |  | inconclusive [inhibitor, partial curve]
CC(NC(=O)c1ccccc1Br)c1nnc(SCC(=O)NC2=NCCS2)n1C (centres undefined) | inactive: 0.467% | 
O=C(NC1CC1(c1ccccc1)c1ccccc1)c1ccccc1 (centres undefined) | inactive: 18.1% | 
CCCc1cc(=O)oc2cc(OCC(=O)NC(Cc3ccc(Cl)cc3)C(=O)O)ccc12 (centres undefined) | inactive: 6.02% | 
O=c1cc(CO)oc(CN2CCC(Cc3ccccc3)CC2)c1O |  | inconclusive [inhibitor, partial curve]
CCc1cccc(NC(=O)Nc2ccc3c(c2)OCO3)c1 |  | inconclusive [inhibitor, partial curve]
CC(C)(C)NC(=O)CCCSc1nc2ccccc2s1 |  | inconclusive [inhibitor, single point]
O=[N+]([O-])c1ccc(NC2CCN(Cc3ccccc3)CC2)c([N+](=O)[O-])c1 |  | inconclusive [inhibitor, single point]
CCOc1cccc(OCC)c2c(C)[n+](CC3CCCO3)c(C)c1-2 (centres undefined) |  | inconclusive [inhibitor, partial curve]
O=C(O)CCc1nn2c3ccccc3n(Cc3ccccc3F)c2nc1=O | inactive: 3.99% | 
CN(C)c1ccc(/C=C2\N=C(c3ccc(Cl)c([N+](=O)[O-])c3)NC2=O)cc1 |  | inconclusive [inhibitor, partial curve]
CC[C@]12c3[nH]c4cc(-c5ccco5)ccc4c3CCN1C(=O)[C@@H](CC(=O)NCc1ccco1)C[C@@H]2C(=O)N1CCN(C(=O)c2ccco2)CC1 |  | inconclusive [inhibitor, single point]
COc1ccc(CNc2nc(NCc3ccc(OC)c(OC)c3)n(C(=O)c3cccs3)n2)cc1OC |  | inconclusive [inhibitor, single point]
CCc1ccc(CN2CCN(C(=O)c3ccco3)CC2)cc1 |  | inconclusive [inhibitor, single point]
Cc1ccccc1C(=O)Nc1ccc(N2CCCCCC2)cc1 |  | inconclusive [inhibitor, partial curve]
COc1ccc(OCCNC(=O)C2(C)CCN2Cc2ccc(SC)cc2)cc1 (centres undefined) |  | inconclusive [inhibitor, single point]
COc1ccccc1C(=O)COC(=O)c1ccccc1O | inactive: -4.95% | 
CCOc1ccc2nc(NC3=NC(c4ccc(OC)cc4)CC(=O)N3)nc(C)c2c1 (centres undefined) |  | inconclusive [inhibitor, single point]
CC(C)(Cc1ccc(O)cc1)NC(=O)CC(=O)N=Nc1c(O)[nH]c2cc(Br)ccc12 |  | inconclusive [inhibitor, partial curve]
